In all, about 33,000 sequences were measured (“E-score (-0.5 to 0.5)”: median about -0.013, highest 2% from about 0.3 on). The list shows a part of the results.
Target: T1, Msn1 (UniProt P22148)
T1 sequence: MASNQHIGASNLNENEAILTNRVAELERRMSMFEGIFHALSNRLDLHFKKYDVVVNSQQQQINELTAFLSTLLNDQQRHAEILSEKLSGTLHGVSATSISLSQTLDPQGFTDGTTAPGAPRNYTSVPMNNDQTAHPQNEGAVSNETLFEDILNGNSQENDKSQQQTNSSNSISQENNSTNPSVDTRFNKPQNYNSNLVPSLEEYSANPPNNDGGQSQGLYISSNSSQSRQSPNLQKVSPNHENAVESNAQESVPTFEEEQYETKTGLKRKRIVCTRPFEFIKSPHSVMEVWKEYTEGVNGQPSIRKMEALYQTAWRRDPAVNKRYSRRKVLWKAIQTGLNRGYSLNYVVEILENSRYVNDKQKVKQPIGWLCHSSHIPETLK
Assay: PBM E-score (8-mer binding enrichment) (E-score (-0.5 to 0.5)); higher = stronger / more preferred TF binding; most listed sequences are background and not binding sites
Settings: protein concentration: 200 nM; construct: GST-full length
Description: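 Universal 'all 10-mer' protein binding microarrays (Agilent AMADID 015681) probed with GST-tagged S. cerevisiae TFs (full-length or DBD) made by in vitro transcription/translation (PURExpress), about 100-200 nM. Bound TF was detected with fluorescent anti-GST. Each ungapped 8-mer (which stands for itself and its reverse complement) is scored by the PBM enrichment score (E-score), a modified Wilcoxon-Mann-Whitney statistic from -0.5 to +0.5, computed with the Universal PBM Analysis Suite. Scale: above 0.35 generally sequence-specific binding.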

Sequence	PBM E-score
AAAATCCA	0.0954
AACTCTGT	0.00473
CGCCTACC	-0.113
AGACGTGC	0.154
AGCCTGTA	-0.0734
GCGTAAGA	0.0196
AACGGAGG	-0.0317
AGTGATTC	-0.0424
ACGGTAAT	-0.178
ACATCAGA	0.115
GATGCATC	0.105
AAAGGCCC	-0.106
AGCATTCA	-0.23
ATCCATAA	0.124
GACTAATC	0.121
GTCCCAAC	0.283
GTAGAGTA	0.04
GGTCACAA	-0.0198
CAAGGTGC	-0.0203
ACTAATTC	0.214
CCCCTGGC	-0.32
CGAGATGA	-0.0953
CAGTGAAG	0.0282
AACCTGGC	-0.174
ATCTTGGG	0.0615

Sequence	PBM E-score
AGTCTAAC	-0.192
AAACGCCG	0.135
GAGAGGGC	-0.445
ACCTCTGA	-0.116
GCAACACA	-0.0152
AACCATGT	0.0974
ACCGAATG	-0.0786
CATTTAAC	0.188
CCCAAGGA	-0.0833
CTCGCCAC	-0.205
ATTCACCG	0.0949
GTATCGAC	0.0727
CCGTCAAG	-0.0984
CAACGGGG	-0.0441
ATCACCAT	0.0597
AACAATAA	0.21
ACGGCTTC	-0.0486
GAGAATGA	0.153
GTTGATAA	0.116
GGCCTCCA	-0.116
CGACCACG	-0.0124
CTGCAGCC	-0.0859
ATCGCCGC	-0.111
GTCCGCGA	0.183
AAGGTGCC	-0.0665

Sequence	PBM E-score
CTGACAAC	0.108
AGTATGGC	-0.0129
AGGTTTCG	-0.0543
ATCAGGAC	0.307
AAGCTGAA	0.0186
GGAGCACC	-0.19
ACTTGCCG	-0.08
ATCGAGTG	0.103
GTGTGACA	0.17
CGGATCGC	-0.0183
GGACGGCA	-0.11
ATTTCTCC	-0.0307
AACTTTCT	0.13
ATAGTAGC	0.0535
CGTGGCCA	-0.173
GGAAGGCA	-0.0964
CCATTTTA	0.259
AATGCGCC	0.00012
AAACAGGA	0.157
GCCAACGC	0.00975
GATCAATC	-0.132
CAGCGCTG	0.0343
CCGTAGGA	-0.122
CTACTAGA	-0.0895
CCCTTTAG	-0.0917

Sequence	PBM E-score
CTAACCAG	-0.108
CAAATATG	0.0934
AAGACGAA	0.148
TAATGCAA	-0.0272
ATCTCTCC	-0.195
CCGACAGC	-0.104
ATACGAAG	-0.00167
AAATAAAC	0.169
GACCGCCC	-0.316
CTACCGTA	-0.056
ACCGTTTC	-0.0397
AAGTCTGT	0.232
CGGGTTGC	-0.216
AGGTGTAT	-0.0133
ATGATATA	0.0391
CTACTCCC	-0.042
CGTAAACG	-0.219
CTTGGGAC	0.264
ATAGCACA	-0.0389
ACGGTTAC	-0.131
CCTTAACA	-0.016
AGGGGATA	-0.137
CCGCAATC	-0.0118
AGAGTCTC	-0.0717
ATTTAGTG	0.213

Sequence	PBM E-score
TAATAGCA	-0.169
CGATGAAG	0.0277
ATCTTCCG	0.188
ACCGATCT	-0.0846
AAGCATCG	-0.0127
AGACGAAT	0.205
ATTTCTTA	0.145
GCCCCCGA	-0.312
ACTGTTGG	-0.118
ATACAAAT	0.335
GCTACCTA	-0.134
GTTCCCTA	-0.0341
ACTACGAA	0.0645
GTGATGCA	-0.0684
TACGCGTA	0.0979
GTGGAGAA	-0.156
CCTTCGCA	-0.164
CCTGGAAA	0.128
CGGGTTGA	-0.255
AAACGGCC	0.0281
CTCAGCAC	-0.152
CACCAGCA	-0.124
ACGCAACA	-0.0272
GATCACCA	-0.0747
CCGGGGTC	-0.153

Sequence	PBM E-score
ATCAAGGC	-0.0496
ATGGCTGG	-0.202
ACATCCGT	0.149
CGCATGAG	-0.143
AACGTATA	-0.0249
ATTCGTCG	0.0922
ATTACAAT	0.155
TGGTGTAA	-0.121
AAACTACG	0.0553
AACTAAAA	0.127
CACTCCCA	-0.155
CGGAAAAC	0.0672
CATAGATC	0.0219
CCCCTCGC	-0.313
AATGCAGA	-0.069
CGTTCGAA	0.206
GCTGATAA	0.0332
GGACTACA	-0.00935
TAAAGCGA	0.045
ATGGGTAC	0.139
CACGATGC	-0.138
AGTTTAGG	-0.108
AACCATCT	-0.246
CTTCGTCC	-0.0108
GAGCGGTA	-0.156

Sequence	PBM E-score
ACAAAAGA	0.27
CGTCCGTC	-0.145
AGTCCGCA	0.00745
TCTTGTCA	0.238
AACGTCCG	0.0575
GATCACTA	-0.0238
CGATAATA	0.0341
TAAATTTA	0.228
CTCGTCAG	0.00059
ACATGCCA	0.15
CCGCTCTC	-0.318
ACCCAGAA	0.171
AAATTAGG	0.198
AGGACTAC	-0.122
AATAATTC	0.137
ATCCCTGC	-0.24
ATAATGAA	0.193
AAGAGTCC	-0.0838
ATTTAGGA	0.192
CAGGCACC	-0.189
GCCTCTGA	-0.252
CGCCTTGC	-0.0458
AGGATTTG	0.0283
TGACGTAA	-0.0403
ATAGCAGG	0.0376

Sequence	PBM E-score
CGCTGTAG	-0.0792
AACTCAGG	0.0371
CGTCTTAG	-0.101
AGGAGATA	-0.0904
GGGCCGTA	-0.23
GACCAGAC	-0.00479
ACGCGGAG	-0.118
CGGTCCCC	-0.169
GCTGTAAA	-0.0739
ATCGCAGC	0.134
CCGGCAGC	-0.105
AGGCTCCG	0.0964
ATACACAA	-0.0056
AAACGGGG	0.0857
CGTCTGGC	0.0411
CTACGCAG	-0.12
CACCAACA	-0.218
CATCTGTA	0.0231
AGTGGCTC	-0.158
AAGAACTA	0.0515
AGGTACAG	0.00868
TAGAAACA	0.0543
GATATTGA	0.0768
TCGAGTCA	-0.00232
GTCGCCAA	-0.146

Sequence	PBM E-score
GAATTTAA	0.0218
TCACAACA	0.158
CCGCCTGC	-0.203
CCACTCAA	-0.0179
ATATGACA	0.304
ATGTTGGG	-0.153
CATGGCGA	0.0998
CTACCACA	-0.181
TACAGCAA	0.00838
AACCCTTA	0.0341
CGGGTTCC	-0.143
AACTGAAC	-0.0479
AGGAAGGA	-0.311
CATAAAAC	0.096
CCAGCTGA	0.0261
GGGGGAGA	-0.263
GCTAGGCA	-0.157
ACACCTTC	0.0993
ATTCGACA	-0.00217
AGGACGGC	-0.242
AGCCGCGG	0.064
GTGGCGAA	-9e-05
GAACAGCA	-0.0355
ACAGTCGT	-0.0698
CCGAGGAC	0.256

Sequence	PBM E-score
GAAACGTA	0.0601
ATGACAAC	0.311
AAGCGACT	-0.0838
GCTCAACA	-0.0111
ACTTGCCT	-0.136
CACGAAGC	0.00593
GATGCGAC	-0.109
GTTTCCCA	-0.0664
AAAATTCC	0.158
CGCGGCAC	0.0728
AGTTCCGA	0.0704
ACTTCGTC	0.0916
GCATTTGA	0.051
ACGGGGTA	-0.162
CCGACTTC	-0.163
TGCATAAA	0.18
AAGACTCT	0.123
GGTTGTCA	0.0708
AGGACCTC	0.0644
CTAGGACA	0.489
ACAATACT	0.325
AAGCTTCA	-0.0384
CCTATAGG	-0.157
CTTGCTGA	-0.166
CACCGCCC	-0.12

Sequence	PBM E-score
CGAGTGTA	-0.00181
CGCGAGTC	-0.0435
ACACGGAT	0.17
GCAAACCC	-0.225
GTAAGGGA	0.107
AAACGGGT	0.104
CTTAATCA	0.0521
ACGACATA	0.319
AACGTTGC	-0.0867
AGCAGCGA	-0.0353
GCGCGCCC	-0.0275
GCGCACTA	0.0555
CTACAACA	0.0452
ACTATTGC	-0.0897
AAGTGAAA	0.119
ATAGACGA	0.0929
CCATGAAG	0.0685
CTAGCCCA	-0.156
ATCAGCTA	-0.0929
CGCTCACA	-0.16
AGGACCTG	-0.134
AGTTCAGA	-0.0982
AGGATGTC	0.398
GAAACATA	-0.0331
CTGGCGGA	-0.218

Sequence	PBM E-score
CGATGACA	0.314
ACAATAGC	0.00407
GTGCGGCA	-0.0318
CCGTCTGA	-0.188
CCGTTTGA	0.0322
ACTTAAGA	0.195
ACGTTGGG	-0.00912
ATCCTGCC	-0.188
GCTTACAC	-0.145
CCGCTCAC	-0.22
GGAACAAC	0.0504
CCGTAACG	-0.096
TCAGGAGA	-0.0143
GGAGAGCC	-0.346
AACGTGTC	0.251
GAGGTAAA	0.0739
GAGGGAAC	-0.0141
ACGGTATA	-0.0729
CATTACTC	0.128
AGGAGCAG	-0.262
AAACCATT	0.0322
GTAATGAA	-0.0202
ACCATGTA	0.154
ATTCCGTA	0.198
ATCACCGG	-0.189

Sequence	PBM E-score
ATTTGGTG	-0.0212
GCTTAAAC	-0.0733
CCGCATAG	0.0368
CTCGCCAA	0.0253
GAGAACGC	-0.0088
CCTGAGTC	-0.0945
ATGTGCCC	-0.0153
ACACATGG	0.161
CCCCCTCC	-0.336
CTAAGGAA	0.115
GTGAGGCA	-0.0279
CTGCTCGA	-0.233
AAACTCGA	0.0109
CAGAAGAC	0.112
CGCGTGCC	-0.134
AGGTCCAG	0.0683
ACCATATG	0.148
TAGCCCCA	-0.163
CTTTGCTA	-0.0573
GCGTTTAC	-0.0648
CGCCGTAA	0.0564
AAGTCCCT	0.225
GGAGAAGA	-0.21
TCCCCTCA	-0.11
AGAGCTGC	-0.244

Sequence	PBM E-score
AGTATAGC	-0.00602
GATAATCC	-0.0724
ATGCTACA	-0.12
CCTGCACG	-0.163
AAGGTAGC	-0.16
CGTAAGAA	-0.00925
CTATTGAC	-0.0942
ATAAGCCA	-0.0287
CGCCCACA	0.0859
ACAGGTGG	-0.0714
AGCGTTCG	-0.04
ATAGGGCG	-0.188
TAAAGGAA	-0.131
CGTAGACC	-0.151
GACCATAA	0.105
CGCGTACA	0.0819
AGTGCGTC	-0.155
AACCACGC	0.116
ACAGTTAC	0.138

Reference: the supplement of paper PMC3334620
